Test results published in PubChem BioAssay AID686970 (National Center for Advancing Translational Sciences (NCATS), 2013).
Out of some 360,000 compounds screened, about 6,000 (1.7%) were called active. The inconclusive results got no clear call from the source; some entries with a clear call stand among them for comparison. Calls follow the shape of the dose curve; as a rule, active = well fitted cell-killing curve with a large enough effect; inconclusive = small, poorly fitted or top-dose-only effect, or effect the other way; inactive = flat fitted curve, though single readings scatter. Potencies of inconclusive entries are left out as doubtful fits.

Assay: qHTS for induction of synthetic lethality in tumor cells producing 2HG: qHTS for the HT-1080-NT fibrosarcoma cell line;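 also: NT is the 2HG producing partner of a matched IDH1 knockdown line; nearly all actives have a fitted effect of over 55% in size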;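 as to activity, negative = less viability: 0% = DMSO-treated cells and -100% = media-only wells without cells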
Settings: HT-1080-NT fibrosarcoma viability, CellTiter-Glo ATP luminescence, 48 h; activity, negative = less viability: at 46.1 µM (top of the series) unless noted
How it was run: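 HT-1080-NT; 750 cells/well; 5% FBS RPMI; 48 h compound, 37 degrees C; CellTiter-Glo luminescence; curve fitting and curve-class assignment.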
Potency is read from the fitted curve at half-maximal effect; tags tell the direction and shape of the fitted curve.

Row | Compound | Potency | activity, negative = less viability
1 | CCOC(=O)c1ccc(NC(=O)CN2C(=O)NC3(CCCCCCC3)C2=O)cc1 | inconclusive [cytotoxic, single point] | –
2 | O=C(Nc1ccc2oc(-c3cccnc3)nc2c1)c1ccc([N+](=O)[O-])o1 | – | inconclusive: -6.44% [cytotoxic]
3 | CCOc1ccc(OCC)c(NC(=O)CN2CCN(c3cc(C)ccc3C)CC2)c1 | inconclusive [cytotoxic, single point] | –
4 | Cc1nn(C(C)(C)C)c(OC(=O)c2ccc3c(c2)OCO3)c1S(=O)(=O)c1ccccc1 | active: 20.6 µM | –
5 | O=c1cc(-c2ccccc2)[nH]c2cc(Cl)ccc12 | active: 0.517 µM | –
6 | Cc1cccc(CS(=O)(=O)c2nnc([C@H](Cc3ccccc3)NC(=O)OC(C)(C)C)o2)c1 | active: 5.01 µM | –
7 | O=C(Nc1ccc2c(c1)OCCO2)c1cccc(S(=O)(=O)N2CCOCC2)c1 | inactive | –
8 | O=S(=O)(NCc1ccccc1)c1ccc(S(=O)(=O)NCC2CCCO2)cc1 (configuration not stated) | inactive | –
9 | COc1cc(/C=C/C(=O)CC(=O)/C=C/c2ccc(O)c(OC)c2)ccc1O | inconclusive [cytotoxic, partial curve] | –
10 | O=C(NCc1ccccc1)C(C1CC1)n1c(CSCCOc2ccccc2)nc2ccccc21 (configuration not stated) | inconclusive [cytotoxic, single point] | –
11 | Cc1ccc(/C=N/NC(=O)c2cc(-c3cccnc3)nc3ccccc23)cc1 | active: 1.46 µM | –
12 | COc1ccc(NS(=O)(=O)c2cccc(C(=O)NCc3ccccc3CN3CCCC3)c2)cc1 | inconclusive [cytotoxic, single point] | –
13 | COc1cc(/C=C2\SC(N)=NC2=O)ccc1O | inconclusive [cytotoxic, single point] | –
14 | Cc1cc(C)c(OCCCCN2CCNCC2)c(C)c1 | inconclusive [cytotoxic, partial curve] | –
15 | CC1CCCCN1Cc1c(O)ccc2c(=O)c(-c3nc4ccccc4s3)c(N)oc12 (configuration not stated) | inconclusive [cytotoxic, single point] | –
16 | CN1/C(=C\C(=O)Nc2cccc(Cl)c2)C(C)(C)c2ccccc21 | inconclusive [cytotoxic, single point] | –
17 | COc1ccc(-c2cc(C(=O)Nc3cc(Br)ccc3O)no2)cc1 | inactive | –
18 | COC(=O)N/N=C\c1ccccc1OC/C=C/c1ccccc1 | inconclusive [cytotoxic, single point] | –
19 | C=CCOC(=O)c1[nH]c2c(c1C)C(=O)CC(c1ccco1)C2 (configuration not stated) | inconclusive [cytotoxic, full curve, poor fit] | –
20 | CN(C(=O)c1cc([N+](=O)[O-])ccc1NCc1cccnc1)c1ccccc1 | inactive | –
21 | COC(=O)c1[nH]c2cc(OC)ccc2c1NC(=O)CN1CCN(c2cccc(C)c2)C(C)C1 (configuration not stated) | inconclusive [cytotoxic, single point] | –
22 | Cn1ncc(Cl)c1C(=O)NCc1ccco1 | inactive | –
23 | CCNc1ccc(Br)cc(C(=O)/C=C/c2ccc(Cl)cc2)c1=O | inconclusive [cytotoxic, single point] | –
24 | COCCCNc1nc2c(c(=O)n(Cc3ccc(F)cc3)c(=O)n2C)n1C | inactive | –

Row | Compound | Potency | activity, negative = less viability
25 | CCn1c(SCC(=O)N/N=C/c2ccc(C)s2)nc2ccccc21 | inconclusive [cytotoxic, partial curve] | –
26 | O=C(CN(c1ccccc1)S(=O)(=O)c1ccccc1[N+](=O)[O-])Nc1cccnc1 | inactive | –
27 | O=C(/C=C/c1ccc(F)cc1)NC(=S)Nc1ccccc1 | inconclusive [cytotoxic, single point] | –
28 | O=C(CCN1CCCCC1)N/N=C/c1c[nH]c2ccccc12 | inconclusive [rising, single point] | –
29 | COc1ccc(NC(=O)OCCn2c([N+](=O)[O-])cnc2C)cc1 | inconclusive [rising, partial curve] | –
30 | CNC(=O)c1nnsc1S(=O)(=O)c1ccc(Cl)cc1 | inconclusive [cytotoxic, single point] | –
31 | CN1CCN(c2ccc(NC(=O)c3ccc(Oc4ccccc4)cc3)cc2)CC1 | active: 14.6 µM | –
32 | CCN(C(=O)COC(=O)/C=C/c1nc2ccccc2s1)c1c(N)n(Cc2ccccc2)c(=O)[nH]c1=O | inactive | –
33 | Cc1ccc(S(=O)(=O)N(C)c2ccc(C(=O)Nc3ccccc3C(=O)N3CCOCC3)cc2)cc1 | inactive | –
34 | CC1C(=O)Nc2ccccc2N1C(=O)c1ccc(F)cc1 (configuration not stated) | inactive | –
35 | Cc1cccc2c(=O)cc(C)n(CC(=O)N3CCOCC3)c12 | inactive | –
36 | Cc1cccc(C)c1-n1nnnc1C(c1ccnc2ccccc12)N(CCN(C)C)Cc1ccccc1 (configuration not stated) | active: 20.6 µM | –
37 | CCCCN1C(=O)C(=O)N(CC(=O)NC2CCCc3ccccc32)C1=O (configuration not stated) | inactive | –
38 | Cc1c(C(=O)Nc2ccncc2)sc2nc(-c3ccc(F)cc3)cn12 | inconclusive [cytotoxic, single point] | –
39 | O=C(NCC1CCCO1)c1ccc(COc2ccc(Cl)cc2)cc1 (configuration not stated) | inconclusive [cytotoxic, single point] | –
40 | C[C@H](O)[C@@H]1CN2CCc3c([nH]c4ccccc34)[C@@H]2C[C@@H]1N(C)C(=O)Nc1ccc(Br)cc1 | inconclusive [cytotoxic, single point] | –
41 | CC(=O)NN(O)C1N(C)C(=O)N(Cc2ccccc2)C1(C)C (configuration not stated) | inactive | –
42 | Cc1ccc(S(=O)(=O)N2CCCCC2)cc1NC(=O)c1ccco1 | inactive | –
43 | COc1ccc(/C=C/C(=O)OCC(=O)c2c(N)n(C)c(=O)n(C)c2=O)cc1 | inactive | –
44 | Cc1cccc(NC(=S)NCc2cccn2C)c1 | inconclusive [cytotoxic, single point] | –
45 | CCOC(=O)/C=c1\s/c(=C\c2c(OC)ccc3ccccc23)c(=O)n1CC(=O)NCC1CCCO1 (configuration not stated) | active: 10 µM | –
46 | COc1ccc(-n2cnc(=S)[nH]c2=S)cc1 | inconclusive [cytotoxic, single point] | –
47 | COc1ccc(CN(C)C(=O)[C@H]2O[C@@H](n3ccc(N)nc3=O)[C@H](O)[C@@H]2O)cc1OC | inactive | –
48 | CN1C(=O)C(CC(=O)Nc2ccc(F)cc2)N(CCCc2ccccc2)C1=S (configuration not stated) | active: 20.6 µM | –

Row | Compound | Potency | activity, negative = less viability
49 | Cc1cc(C)cc(NC(=O)CCC(=O)Nc2cc(C)on2)c1 | inconclusive [rising, partial curve, poor fit] | –
50 | OC(c1ccc(Cl)c(F)c1)c1ncc(-c2ccccc2F)[nH]1 (configuration not stated) | inconclusive [cytotoxic, single point] | –
51 | COc1ccc(NC(=O)c2ccc(-c3c(C)noc3C)c3ccoc23)cn1 | inconclusive [rising, partial curve] | –
52 | COc1cccc(Nc2nc(C(N)CC(C)C)cs2)n1 (configuration not stated) | inconclusive [cytotoxic, single point] | –
53 | COc1ccc(CC2=C(O)c3ccccc3C(=O)C2=O)cc1 | inconclusive [cytotoxic, single point] | –
54 | COc1cccc(N=Cc2ccc(O)cc2O)c1 | inconclusive [cytotoxic, single point] | –
55 | COc1ccc(/C=N/NC(=O)c2ccc(NC(=O)c3cccc([N+](=O)[O-])c3)cc2)c(OC)c1 | inconclusive [cytotoxic, single point] | –
56 | CCOC(=O)c1cc(CC)sc1NC(=O)COC(=O)c1ccccn1 | inactive | –
57 | O=C(/C=C/NNC(=O)c1ccccc1O)c1ccccc1 | inactive | –
58 | O=C(Nc1nnc([C@@H]2C[C@H](O)[C@@H](CO)O2)s1)Nc1ccccc1Oc1ccccc1 | inactive | –
59 | COc1ccc(NC(=O)C2(C)Cc3c(-c4cccc(NC(C)=O)c4)ccnc3O2)cc1OC (configuration not stated) | inconclusive [cytotoxic, partial curve] | –
60 | COc1cc(/C=C(/C(=O)O)c2ccc(-c3ccccc3)cc2)cc(OC)c1OC | inconclusive [cytotoxic, partial curve] | –
61 | O=C(CC1Sc2ccccc2NC1=O)NNc1ccc(Cl)cc1Cl (configuration not stated) | inconclusive [cytotoxic, partial curve] | –
62 | CCCCOc1ccc2c(c1)C(=O)c1cc(O)ccc1-2 | inconclusive [cytotoxic, single point] | –
63 | OC(c1ccccc1)(c1ccccc1)C1CCN(CCCOc2ccc3c(c2)CCCC3)CC1 | active: 14.6 µM | –
64 | COc1ccc(/C=N/Nc2ncnc3scc(-c4ccccc4)c23)cc1OC | inconclusive [cytotoxic, single point] | –
65 | O=C(NNc1ccc(Cl)cc1)c1sccc1Cl | – | inconclusive: -19.5% [cytotoxic]
66 | COc1cccc(CC(NC(C)=O)C(=O)NC2CCN(S(=O)(=O)c3cccc4ccccc34)CC2)c1 (configuration not stated) | inconclusive [cytotoxic, single point] | –
67 | COc1ccc(C(O)Cn2ccsc2=NC(C)=O)cc1 (configuration not stated) | inconclusive [cytotoxic, single point] | –
68 | CCOC(=O)C1=C(C)NC(C)=C(C(=O)OCC)C1c1cc2ccc(C)cc2[nH]c1=O | active: 18.4 µM | –
69 | Cc1ccccc1-c1cc2nc(NCCOc3ccccc3Cl)n(C)c(=O)c2s1 | inconclusive [cytotoxic, single point] | –
70 | CCN(C(=O)c1cc(Cl)ccc1OC)c1ccccc1C | inactive | –
71 | Cc1ccnn1CC(=O)N/N=C/c1ccc([N+](=O)[O-])s1 | inconclusive [cytotoxic, single point] | –
72 | Cc1cc(O)cc2c1C1CCC3(C)C(O)CCC3C1C=C2 (configuration not stated) | inconclusive [cytotoxic, partial curve] | –
